# Measurements reported in PubChem BioAssay AID720708 (National Center for Advancing Translational Sciences (NCATS), 2013).
# Hit rate of the full screen: of about 360,000 compounds, about 660 (0.18%) were called active. Inconclusive results, whose numbers are uncertain, are shown with a selection of clear calls. Calls come from the whole dose curve; as a rule, active = well fitted inhibition curve with a large enough effect; inconclusive = small, poorly fitted or top-dose-only effect; inactive = no such curve, though single readings can be large or run the other way. Potencies of inconclusive entries are left out as doubtful fits.
# Biological target: Rap guanine nucleotide exchange factor 4 (Homo sapiens) (UniProt Q8WZA2)
# UniProt Q8WZA2, sequence (Q8WZA2 whole entry, looked up): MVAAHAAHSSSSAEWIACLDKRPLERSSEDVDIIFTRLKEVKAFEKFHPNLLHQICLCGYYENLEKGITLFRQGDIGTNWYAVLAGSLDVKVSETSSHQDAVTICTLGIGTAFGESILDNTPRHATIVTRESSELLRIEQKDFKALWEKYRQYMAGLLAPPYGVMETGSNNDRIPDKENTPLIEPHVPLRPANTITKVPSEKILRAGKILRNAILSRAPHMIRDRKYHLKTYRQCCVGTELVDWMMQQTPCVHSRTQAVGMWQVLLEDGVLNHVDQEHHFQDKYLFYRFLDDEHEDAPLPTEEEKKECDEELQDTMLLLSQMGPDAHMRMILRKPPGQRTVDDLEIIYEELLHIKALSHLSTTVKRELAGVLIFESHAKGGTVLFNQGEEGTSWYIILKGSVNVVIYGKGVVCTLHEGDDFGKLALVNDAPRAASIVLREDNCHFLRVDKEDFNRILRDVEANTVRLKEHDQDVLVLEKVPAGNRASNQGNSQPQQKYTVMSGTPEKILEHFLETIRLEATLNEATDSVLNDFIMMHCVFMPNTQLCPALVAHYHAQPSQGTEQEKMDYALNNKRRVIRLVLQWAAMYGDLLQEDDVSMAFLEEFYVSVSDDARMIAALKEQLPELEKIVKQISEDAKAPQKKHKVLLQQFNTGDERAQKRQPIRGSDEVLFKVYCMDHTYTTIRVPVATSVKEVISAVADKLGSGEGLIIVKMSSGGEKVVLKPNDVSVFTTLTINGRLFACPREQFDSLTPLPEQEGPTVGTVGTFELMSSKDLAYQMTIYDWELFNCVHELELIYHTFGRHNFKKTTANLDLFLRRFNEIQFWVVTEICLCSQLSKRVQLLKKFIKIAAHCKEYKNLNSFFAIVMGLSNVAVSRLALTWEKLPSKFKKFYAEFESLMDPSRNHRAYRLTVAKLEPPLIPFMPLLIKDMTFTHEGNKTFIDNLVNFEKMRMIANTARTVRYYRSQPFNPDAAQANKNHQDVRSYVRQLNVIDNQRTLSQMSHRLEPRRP
# Test: qHTS for Antagonist of cAMP-regulated guanine nucleotide exchange factor 2 (EPAC2): primary screen; note: nearly all actives have a fitted effect of over 45% in size
# Details: EPAC2 GEF exchange of Rap1B-BODIPY-GDP, fluorescence; activity, negative = inhibition: at 114 µM (top of the series) unless noted
# % is set by controls: 0 for no effect and ±100 for the full control effect; potency is the fitted concentration of half-maximal effect; tags give direction and shape of the fitted curve.
Compound,Potency,"activity, negative = inhibition"
COc1ccc([N+](=O)[O-])cc1NC(=O)c1cccs1,"inconclusive [inhibitor, full curve, poor fit]",–
Cc1cc(Cl)ccc1C(=O)C1CCCN(C(=O)c2cnsn2)C1 (configuration not stated),"inconclusive [inhibitor, partial curve, poor fit]",–
CC1(C)[C@@H](O)CC[C@]2(C)C3C(O)C=C4[C@H]5C[C@@](C)(CO)CC[C@]5(C)CC[C@]4(C)[C@]3(C)CC[C@@H]12 (some centres not stated),"inconclusive [inhibitor, full curve]",–
C=CCOc1ccc(C=NNc2ccc(S(=O)(=O)Nc3ccccc3C(=O)O)cc2[N+](=O)[O-])cc1OC,"inconclusive [inhibitor, partial curve, poor fit]",–
COc1ccc(C(CC(=O)N2CCCC(C)C2)c2c(OC)cc(OC)c3ccc(=O)oc23)cc1 (configuration not stated),"inconclusive [inhibitor, partial curve]",–
Cc1noc(/C=C/c2ccc(-c3ccccc3Cl)o2)c1[N+](=O)[O-],–,inactive: 217%
CCCCC[C@H](C)N1C[C@H](COCc2ccccc2)Oc2cc(N3CC[C@H](O)C3)ccc2S1(=O)=O,"inconclusive [inhibitor, partial curve]",–
Cc1nn(C)c(C)c1NC(=O)c1ccc(Br)o1,–,inactive: -8.68%
CCn1c(SCC(=O)Nc2nncs2)nnc1-c1ccco1,–,inactive: 12.8%
COc1ccc(S(=O)(=O)N2CCN(CCOc3ccc(Br)cc3)CC2)cc1OC,"inconclusive [inhibitor, full curve]",–
CCOc1c(S(=O)(=O)N2CCCC2)ccc(Cl)c1Cl,"inconclusive [inhibitor, partial curve]",–
CC1=NOC(=O)/C1=C\c1ccc(-c2ccc(Br)cc2)o1,"inconclusive [inhibitor, single point]",–
COCCNC(=S)NC(=O)c1ccc(C(C)(C)C)cc1,–,inactive: -10.4%
CCc1nc2c(OCc3ccc(Cl)cc3)cccn2c1N(C)C(=O)c1cccs1,"inconclusive [inhibitor, partial curve]",–
O=C(c1ccco1)N(Cc1cccc([N+](=O)[O-])c1)c1ccc(Br)cc1,"inconclusive [inhibitor, partial curve]",–
CCOC(=O)C1CCCCN1C(=O)c1cc2ccc(OC)cc2c2cc(OC)c(OC)cc12 (configuration not stated),"inconclusive [inhibitor, partial curve]",–
COc1ccc(Cn2nnnc2CN(Cc2cc3ccc(C)cc3[nH]c2=O)C2CCCC2)cc1,–,inactive: -2.3%
O=C(C(=O)N1CCC(Cc2ccccc2)CC1)c1ccccc1,"inconclusive [inhibitor, single point]",–
COc1ccc(C)cc1S(=O)(=O)n1cnc2ccccc21,"inconclusive [inhibitor, partial curve]",–
COc1ccc([N+](=O)[O-])cc1-c1[nH]c(-c2ccc(C(=O)O)cc2)nc1-c1ccccc1,"inconclusive [inhibitor, partial curve]",–
CCN(Cc1ccccc1)C(=O)c1cc2c(OC)c(OC)c(OC)cc2[nH]1,"inconclusive [inhibitor, partial curve]",–

Compound,Potency,"activity, negative = inhibition"
CCOC(=O)c1c(-c2cccs2)csc1N,"inconclusive [inhibitor, partial curve]",–
Cc1ccc(C2(c3ccc(C)cc3)NC(=O)N(CC(N)=O)C2=O)cc1,"inconclusive [inhibitor, partial curve]",–
Cc1ccc(C(=O)Nc2ccccc2C(=O)O)cc1S(=O)(=O)Nc1ccccc1,"inconclusive [inhibitor, full curve]",–
CCC(=O)NC(c1cc(Cl)c2ccccc2c1O)C(C)C (configuration not stated),"inconclusive [inhibitor, partial curve]",–
COc1ccc(/C=C/C(=O)c2ccc(OC)cc2OC)cc1,"inconclusive [inhibitor, full curve]",–
CSc1ccc(/C=C/C(=O)OCC(=O)NC2CCCC2)cc1,–,inactive: 2.06%
Cc1cc(C)c(S(=O)(=O)/N=C2\C=C(NS(=O)(=O)c3ccccc3)C(=O)c3ccccc32)c(C)c1,"inconclusive [inhibitor, single point]",–
COc1c(F)c(F)c(C(=O)Nc2cccc(Cl)c2N2CCOCC2)c(F)c1F,–,inactive: 6.46%
CCc1c(-c2ccc(Br)cc2)ncn1Cc1cccc(-c2ccccc2)c1,"inconclusive [inhibitor, single point]",–
OCCCCC#Cc1c(-c2ccsc2)sc2ccccc12,"inconclusive [inhibitor, full curve]",–
COc1ccc(-c2cc(=O)oc3c(C)c(OCC(=O)NCC4CCC(C(=O)O)CC4)ccc23)cc1 (configuration not stated),"inconclusive [inhibitor, partial curve]",–
Cc1ccc2oc(C(=O)N(C)Cc3ccon3)c(C)c2c1,"inconclusive [inhibitor, partial curve]",–
CCCCOC(=O)C1=C(C)N(C)C(=O)NC1c1cc2c(cc1Br)OCO2 (configuration not stated),"inconclusive [inhibitor, partial curve]",–
COC(=O)C1C2CC3c4[nH]c5cc(OC)ccc5c4CCN3CC2CC(OC2CCCCO2)C1OC (configuration not stated),–,inactive: 5.97%
COc1ccc(-c2nc(N3CCN(C)CC3)sc2-c2ccc(OC)cc2)cc1,"inconclusive [inhibitor, single point]",–
N/C(=N\OC(=O)Cc1ccccc1)c1ccccn1,–,inactive: 7.98%
O=C(O)c1ccc(CN(Cc2ccccc2)S(=O)(=O)c2ccc(Cl)cc2)cc1,"inconclusive [inhibitor, partial curve]",–
COC(=O)C1=CN(Cc2cccs2)C=C(C(=O)OC)C1c1ccc(OC)cc1OC,"inconclusive [inhibitor, full curve]",–
N#C/C(=N\Nc1ccc(Cl)cc1)C(=O)c1ccsc1,"inconclusive [inhibitor, partial curve, poor fit]",–
S=c1nc(Cc2ccc(Cl)cc2)[nH]c2ccccc12,–,inactive: 9.85%
CCCCCC(=O)Nc1cc(S(=O)(=O)O)cc2cc(S(=O)(=O)O)cc(O)c12,"inconclusive [inhibitor, full curve, poor fit]",–
